# Laboratory results reported in PubChem BioAssay AID686978 (National Center for Advancing Translational Sciences (NCATS), 2013).
# About 64,000 (15%) of roughly 420,000 compounds were called active. The shares of active, inactive and inconclusive entries below differ from those in the screen. The call rests on the fitted dose curve; in most records, active means well fitted inhibition curve with a large enough effect; inconclusive means small, poorly fitted or top-dose-only effect; inactive means flat fitted curve, though single readings scatter. Potencies of inconclusive entries are left out as doubtful fits.
# Experiment: qHTS for Inhibitors of human tyrosyl-DNA phosphodiesterase 1 (TDP1): qHTS in cells in absence of CPT; further: nearly all actives have a fitted effect of over 55% in size
# Conditions: DT40 Tdp1-/- hTDP1 cells, no CPT, ATP luminescence, 48 h; activity change, negative = growth inhibition: at 46.2 µM (top of the series) unless noted
# How it was run: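 Camptothecin absent (DMSO only). Human TDP1-complemented DT40 knockout cells, 400 cells/well, 37 °C for minimum 48 hr; ATP measured via CellTiter-Glo, 30 min dark incubation, luminescence.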
# On the % scale 0 is the no-effect control and ±100 the full control effect; potency means the concentration at half of the fitted maximal effect; tags describe the fitted curve by direction and shape.
SMILES,Potency,"activity change, negative = growth inhibition"
COCCNC(=O)C1=C(N)C(C(=O)Nc2ccc(C)c(S(=O)(=O)N3CCCCC3)c2)SC1=Nc1ccc(C)cc1C (stereo not drawn),active: 18.4 µM,
CCc1ccc2c(c1)C(O)(CC(=O)c1cccs1)C(=O)N2 (stereo not drawn),"inconclusive [inhibitor, single point]",
Cc1cc(N2CCC(C)CC2)nc(NCc2ccccc2)n1,active: 16.4 µM,
Cc1ccc(C(=O)NC2CCN(S(=O)(=O)c3ccc(C)cc3)CC2)cc1,inactive,
COc1ccc(N(C)S(=O)(=O)c2cccc(C(=O)OCC(=O)Nc3cc(C)ccc3OC)c2)cc1,"inconclusive [inhibitor, single point]",
CCC(=O)N1CCc2cc(Br)cc(S(=O)(=O)N3CCC(C(=O)NC(C)(C)C)CC3)c21,"inconclusive [inhibitor, full curve]",inconclusive: -35.6% [inhibitor]
COc1cccc(CNC(=O)C2CCN(S(=O)(=O)c3cccc4nonc34)CC2)c1,inactive,
CC1(NC(=S)Nc2ccccc2)CCS(=O)(=O)C1 (stereo not drawn),inactive,
COc1ccc(S(=O)(=O)N2CCOCC2)cc1NC(=O)CN1CCCCCC1,"inconclusive [inhibitor, single point]",
CCCN(C(=O)Cc1coc2cc(OC)ccc12)C1CCS(=O)(=O)C1 (stereo not drawn),inactive,
CCCCOc1ccc(N(CC(=O)NC2CCCC2)C(=O)CCC(=O)Nc2ccccn2)cc1,"inconclusive [inhibitor, partial curve]",
COc1ccc(Cl)c(Cn2c(NCCN)nc3c2c(=O)n(C)c(=O)n3C)c1,"inconclusive [inhibitor, single point]",
CSc1nsc(SCC(=O)Nc2ccc(Br)cn2)n1,inactive,
O=C(NNC(=O)c1ccccc1Cl)c1cc2cc(OC(F)(F)F)ccc2[nH]1,"inconclusive [inhibitor, single point]",
CCOC(=O)C1(Cc2ccc(OC)cc2)CCN(C(=O)CCn2cccn2)CC1,"inconclusive [inhibitor, single point]",
CC(C)Cn1c(=O)c2ccccc2n2c(-c3cccc(Cl)c3)nnc12,active: 25.9 µM,
O=S(=O)(c1ccccc1)c1nc(Nc2ccccc2N2CCOCC2)sc1Cl,"inconclusive [inhibitor, single point]",
Cc1c2ccccc2nc2ccccc12,"inconclusive [inhibitor, single point]",
CC(=O)Nc1ccc2c(c1)nc(C)n2-c1ccccc1,inactive,
O=C(C1CCN(S(=O)(=O)c2ccc(F)cc2)CC1)N1CC=C(c2ccccc2)CC1,"inconclusive [inhibitor, single point]",
COc1ccc(C2=CC(=O)CC(c3ccc(F)cc3)C2)cn1 (stereo not drawn),"inconclusive [inhibitor, partial curve]",
O=C(CC(c1ccccc1)c1cc(Cl)ccc1O)NCCN1CCOCC1 (stereo not drawn),inactive,
NC(=S)n1[nH]c(-c2ccc([N+](=O)[O-])cc2)c(N=Nc2cccc(Cl)c2)c1=O,active: 6.51 µM,
CCCCC(=O)Nc1cc(C)c2c(=O)oc3ccccc3c2n1,"inconclusive [inhibitor, single point]",

SMILES,Potency,"activity change, negative = growth inhibition"
N=c1n(Cc2ccccc2Cl)c2ccccc2n1CC(O)c1ccco1 (stereo not drawn),"inconclusive [inhibitor, partial curve]",
CCc1ccccc1NC(=O)CSc1nnc(-c2nonc2NC(C)=O)n1C,"inconclusive [inhibitor, single point]",
CCCc1cc(=O)[nH]c(NCc2ccc(Cl)cc2)n1,"inconclusive [inhibitor, single point]",
COC(=O)COc1cccc(NS(=O)(=O)c2cccc([N+](=O)[O-])c2)c1,inactive,
CN(CC(=O)NCc1ccccn1)S(=O)(=O)c1ccc2ccccc2c1,inactive,
CSc1ccc(S(=O)(=O)NC2CCCCCC2)cc1,"inconclusive [inhibitor, partial curve]",
O=C(/C=C/c1cccc(C(F)(F)F)c1)N1CCN(c2ccccn2)CC1,"inconclusive [inhibitor, single point]",
CCCOc1ccccc1Cn1c(=O)sc2ccccc21,"inconclusive [inhibitor, single point]",
CCOC(=O)CN1CCc2c(C)nc3c(-c4ccc(OC)c(OC)c4)cnn3c21,"inconclusive [inhibitor, single point]",
COc1ccc(OCCCC(=O)NCCc2ccccc2)cc1,inactive,
COc1ccc(OCC(=O)NCCCNC(=O)COc2ccc(OC)cc2)cc1,inactive,
COc1cccc(C2=CC(=O)C[C@H](c3ccc4c(c3)OCO4)C2)c1OC,"inconclusive [inhibitor, single point]",
Cc1ccnc(NS(=O)(=O)c2ccc(NS(C)(=O)=O)cc2)n1,inactive,
CCC(Sc1nc2ncnc(N)c2[nH]1)C(=O)O (stereo not drawn),inactive,
CCCCc1nn2c(=O)cc(COC(=O)c3ccccc3NC(=O)C(C)(C)C)nc2s1,inactive,
Cc1onc(-c2c(F)cccc2Cl)c1C(=O)NCCc1ccncc1,inactive,
O=C(Nc1ccccc1C(=O)NC1CCCCC1)c1ccccc1,"inconclusive [inhibitor, partial curve]",
COc1cccc(=O)c2c(C)n(-c3cc(C)cc(C)c3)c(C)c12,"inconclusive [inhibitor, single point]",
COC(=O)C(NC(=O)c1ccc(F)cc1)(Nc1ncc(S(=O)(=O)c2ccc([N+](=O)[O-])cc2)s1)C(F)(F)F (stereo not drawn),active: 13 µM,
Cc1ccn2cc(CSc3ccccc3N)nc2c1,"inconclusive [inhibitor, partial curve, poor fit]",
Cc1ccc(N2CCn3c2nc2c3c(=O)n(CCc3ccccc3)c(=O)n2C)cc1C,inactive,
COc1cc(C=O)ccc1OCC(=O)Nc1cccc(S(=O)(=O)N(C)c2ccccc2)c1,active: 11.6 µM,
CCCCn1c(N)c(N(CCOC)C(=O)CSCc2ccc(C)cc2)c(=O)[nH]c1=O,inactive,
